# The list shows a part of the results. Each Rep nickase domain was tested in vitro on the same pool of single strands at 3 µM enzyme and 37 °C for 1 h; the strands have 90 letters, of which the middle is given. Uncut reads are compared with the no-enzyme pool on a log2 scale; strong cutting gives strongly negative numbers. There is no active / inactive call. The scaling is to total reads, so uncut sequences can rise above 0 when many others are cut.
# Experiments:
# Experiment in all cases: uncleaved DNA left, log2 of reads against the no-enzyme library (log2 ratio); higher = less cleavage (more negative = more Rep cleavage of the k-mer); sequences stand for … in CTCGTCCG…ACCGGAGA
# [1] = test system: T1, Rep nickase domain of Muscovy duck circovirus
# T1 sequence (residues 1-111, tag not shown): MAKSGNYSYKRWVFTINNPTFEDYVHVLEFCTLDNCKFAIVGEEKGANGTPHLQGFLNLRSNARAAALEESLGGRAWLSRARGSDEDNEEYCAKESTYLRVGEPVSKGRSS
# Protocol: (§1)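 A pool of 90-nt single-stranded DNAs with seven random bases just before the constant AC of the nick site (name = the seven bases) was cut by 3 µM recombinant His6-SUMO-tagged Rep nickase domain (300 nM DNA, 50 mM HEPES pH 8.0, 50 mM NaCl, 1 mM MnCl2, 1 h, 37 °C, three replicates). Uncut DNA was amplified and sequenced.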
# [2] = test system: T2, Rep nickase domain of banana bunchy top virus
# T2 sequence (residues 1-94, tag not shown): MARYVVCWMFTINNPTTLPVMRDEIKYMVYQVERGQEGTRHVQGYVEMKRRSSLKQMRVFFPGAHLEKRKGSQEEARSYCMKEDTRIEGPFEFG
# Protocol: as §1
# [3] = test system: T3, Rep nickase domain of cabbage leaf curl virus
# T3 sequence (residues 1-116, tag not shown): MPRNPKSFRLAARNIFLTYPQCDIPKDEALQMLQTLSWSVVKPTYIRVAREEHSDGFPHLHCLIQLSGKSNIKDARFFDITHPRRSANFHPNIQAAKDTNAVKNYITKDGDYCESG
# Protocol: as §1
# [4] = test system: T4, Rep nickase domain of chickpea chlorotic dwarf virus
# T4 sequence (residues 1-124, tag not shown): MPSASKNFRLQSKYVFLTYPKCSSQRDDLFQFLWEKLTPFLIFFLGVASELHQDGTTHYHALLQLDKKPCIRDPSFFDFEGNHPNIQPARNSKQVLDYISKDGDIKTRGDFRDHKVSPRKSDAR
# Protocol: as §1
# [5] = test system: T5, Rep nickase domain of faba bean necrotic yellows virus
# T5 sequence (residues 1-98, tag not shown): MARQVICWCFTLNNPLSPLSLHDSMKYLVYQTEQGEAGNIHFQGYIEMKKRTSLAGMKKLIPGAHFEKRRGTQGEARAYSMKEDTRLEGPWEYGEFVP
# Protocol: as §1
# [6] = test system: T6, Rep nickase domain of maize striate mosaic virus
# T6 sequence (residues 1-117, tag not shown): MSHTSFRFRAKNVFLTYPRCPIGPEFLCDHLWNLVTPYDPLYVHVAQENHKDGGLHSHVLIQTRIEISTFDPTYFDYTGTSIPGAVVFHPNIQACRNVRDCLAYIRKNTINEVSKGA
# Protocol: as §1
# [7] = test system: T7, Rep nickase domain of porcine circovirus 2
# T7 sequence (residues 2-116, tag not shown): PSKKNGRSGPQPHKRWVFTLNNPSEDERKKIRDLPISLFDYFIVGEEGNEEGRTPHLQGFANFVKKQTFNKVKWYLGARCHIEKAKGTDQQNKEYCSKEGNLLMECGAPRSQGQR
# Protocol: as §1
# [8] = test system: T8, Rep nickase domain of tomato yellow leaf curl virus
# T8 sequence (residues 1-136, tag not shown): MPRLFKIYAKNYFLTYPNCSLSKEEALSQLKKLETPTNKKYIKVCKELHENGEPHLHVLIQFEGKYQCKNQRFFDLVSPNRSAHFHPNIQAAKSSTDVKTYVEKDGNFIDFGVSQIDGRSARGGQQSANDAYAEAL
# Protocol: as §1
# [9] = test system: T9, Rep nickase domain of wheat dwarf virus
# T9 sequence (residues 1-137, tag not shown): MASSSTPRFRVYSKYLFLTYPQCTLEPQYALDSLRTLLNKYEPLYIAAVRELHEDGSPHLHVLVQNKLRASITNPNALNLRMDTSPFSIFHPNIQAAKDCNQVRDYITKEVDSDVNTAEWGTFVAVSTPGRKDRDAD
# Protocol: as §1
Sequence,uncleaved DNA left (log2) [1],uncleaved DNA left (log2) [2],uncleaved DNA left (log2) [3],uncleaved DNA left (log2) [4],uncleaved DNA left (log2) [5],uncleaved DNA left (log2) [6],uncleaved DNA left (log2) [7],uncleaved DNA left (log2) [8],uncleaved DNA left (log2) [9]
CTATGTT,-3.48,-0.791,-3.39,-2.61,-0.254,-2.38,-3.48,-0.00591,-2.37
TCACTTT,-0.0381,-0.201,-0.284,-2.91,-0.135,-0.759,-0.389,-0.0457,-0.318
ACTCATA,0.0925,0.0662,-0.0869,-0.882,0.0454,-0.719,0.0819,0.0376,0.103
ACCCGTC,-0.108,-0.218,-0.0655,-0.14,-0.105,-0.819,0.0571,-0.24,-0.162
CACAGTC,0.0468,-0.0287,-0.262,-0.593,-0.0029,-1,0.00733,-0.0216,-0.0972
CTTCGCG,0.048,0.0727,-0.786,-0.131,0.137,-0.91,0.0854,0.13,0.000345
GAAGCCG,0.0565,-0.0222,-0.726,-0.423,0.0879,-0.827,0.106,-0.0103,-0.0748
GCTGGGC,0.0253,0.0892,0.246,0.826,-0.0285,0.616,0.19,0.104,0.0105
CACATGC,-0.11,-0.0453,-0.788,-0.418,-0.124,-1.3,-0.0141,-0.00434,-0.188
TTTGAAA,-0.0013,-0.0338,0.268,0.273,-0.00726,0.115,0.0095,0.0557,-0.0282
TAAACCG,-0.0316,-0.0147,-0.871,-1.43,0.0604,-1.11,0.0588,0.0371,-0.121
ACCTGGA,0.0415,-0.0632,-0.107,0.05,0.0725,-0.636,0.0549,-0.0516,-0.122
ACGCTGG,0.132,0.0522,-0.299,-0.246,0.189,-0.795,0.245,0.0615,0.0286
ATTCAAT,-0.437,-0.376,-0.0154,-0.342,0.00745,-0.254,-2.92,0.0625,0.11
CTCCTGT,-0.0168,-0.00765,-0.196,-0.684,0.0208,-0.601,-0.162,-0.0569,0.002
GCGCGCA,0.0605,0.03,-0.0996,0.289,-0.0592,0.418,-0.0579,0.0101,-0.0325
CGCACAG,-0.00817,-0.0336,-0.452,-0.234,-0.0788,-0.555,-0.0202,-0.00118,-0.0274
GACGTAC,0.00739,-0.0284,0.155,0.454,0.117,0.134,-0.0077,0.121,0.199
GTTACGG,0.0612,0.054,0.565,1.53,-0.0257,2.14,0.101,-0.0675,0.0589
TCAAGCT,0.0966,0.0832,0.236,0.738,0.142,0.903,0.215,-0.0893,0.0397
AAAACTC,0.0389,-0.0991,-0.5,-1.56,0.0248,-0.633,-0.0313,0.000121,-0.205
AATGAGT,0.0346,-0.0208,-0.267,-0.541,0.0503,-0.668,-0.148,-0.0332,-0.0784
GCTGTGC,0.0862,0.0352,-0.268,-0.256,0.0212,-0.899,0.0944,0.0249,-0.0559
ACAACTC,-0.142,-0.0384,-0.261,-0.677,-0.0974,-0.772,-0.027,-0.163,-0.0201
TTCTGAC,0.0992,-0.044,-0.0113,0.143,0.0925,-0.0697,0.0523,0.0395,0.0584
AGTAAGT,0.08,-0.0113,0.133,-0.289,-0.0272,-0.726,-3.04,0.0381,0.0746
CCTAGTA,0.0705,0.00528,-0.15,-1.14,-0.0348,-0.948,-0.0553,-0.0813,-0.0649
CTTAGTT,-0.095,-0.149,-0.195,-2.09,-0.0532,-0.642,-0.43,-0.0197,-0.00668
TAGCCCG,0.0358,-0.0938,-0.763,-0.343,0.00656,-1.08,-0.257,0.0578,-0.174
ATGCTGC,-0.0178,0.0085,-0.0229,0.52,0.0617,0.124,0.111,-0.101,-0.0554

# Source: the supplement of paper PMC7826260
